Experimental data from PubChem BioAssay AID652104 (National Center for Advancing Translational Sciences (NCATS), 2013).
“And” between values parts separate entries of the source, which are not always exact repeats. Equal values may be shown once. Among all 410,000 compounds or so, about 7,200 (1.8%) were called active. This list was built around the results that the source calls inconclusive (neither active nor inactive); the mix of calls is not that of the screen. The call rests on the fitted dose curve; in most records, active means well fitted activation curve with a large enough effect; inconclusive means small, poorly fitted or top-dose-only effect, or another doubt; inactive means no such curve, though single readings can be large or run the other way. No potency is given beside an inconclusive call; the fits are too rough.

Assay: qHTS of TDP-43 Inhibitors; further: nearly all actives have a fitted effect of over 50% in size; on growth rescue (activation): % of control where 0% means no effect
Settings: TDP-43 expressing yeast growth rescue, BacTiter-Glo, 24 h; growth rescue (activation): at 46.1 µM (top of the series) unless noted
Outline: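 Growth rescue of TDP-43-toxic yeast measured as ATP luminescence (BacTiter-Glo). Cells grown to mid-log in raffinose, induced in galactose at OD600=0.02, exposed to compound 24 hr at 30 deg C.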
Potency means the concentration at half of the fitted maximal effect; tags describe the fitted curve by direction and shape.

| SMILES | Potency | growth rescue (activation) |
| --- | --- | --- |
| O=C(Nc1ccccc1O)c1csc2c1CCCC2 | inconclusive [activator, full curve] |  |
| O=C1OC(/C(=C\Nc2ccc(F)cc2F)[N+](=O)[O-])c2ccccc21 (stereo unspecified) | inconclusive [activator, partial curve] |  |
| CCc1cccc(Nc2ncnc3onc(-c4ccc(F)cc4)c23)c1 | inconclusive [activator, single point] |  |
| O=c1c2c([nH]n1-c1ccccc1)C[C@@H](C1CCCCC1)O[C@H]2c1ccc(F)cc1 | inconclusive [activator, full curve] |  |
| COc1ccc(-c2csc(N3CCN(c4cc(C)nc5ccccc45)CC3)n2)cc1OC | inactive |  |
| Cn1c(=O)n(C)c2cc(N3CCCCC3)c(NC(=O)c3ccc(C(C)(C)C)cc3)cc21 | inconclusive [activator, partial curve] |  |
| COc1ccc(-n2cccc2/C=C2\C(=N)N3N=C(c4ccco4)SC3=NC2=O)cc1 | inconclusive [activator, full curve] |  |
| Cc1cnc([N+](=O)[O-])n1CCOC(=O)NC(=O)c1cccc(F)c1 | inactive |  |
| Cc1sc2ncnc(NCc3ccco3)c2c1C | inactive |  |
| C/C(=N/NS(=O)(=O)c1ccc(Br)cc1)c1ccc(C)o1 | inconclusive [activator, single point] |  |
| Cc1cc(C)n2nc(C(=O)OCCOc3cccc(Br)c3)nc2n1 | inconclusive [activator, single point] |  |
| Nc1c(-c2ccc(Cl)cc2)cnc2ncnn12 | inconclusive [activator, partial curve] |  |
| Cc1ccc(O)c(C(=O)c2cnn(C(=O)COc3ccc(Cl)cc3)c2)c1 | inactive |  |
| CCOc1cc(CNC(=O)Cn2c(-c3cccs3)cc3cc(F)ccc32)ccc1OC | inactive |  |
| COC(=O)CSc1ccc2nnc(-c3ccc(OC)c(OC)c3)n2n1 | inconclusive [activator, single point] |  |
| Cc1ccc2nc(CCl)[n+]([O-])c(-c3ccccc3)c2c1 |  | inconclusive: 69.3% [activator] |
| CCOC(=O)c1c(C)oc2nc(C)nc(NCc3ccccc3OC)c12 | inactive |  |
| COc1ccccc1NC(=O)Cn1c(=O)n(CCCCCC(=O)NCc2ccccc2)c(=O)c2sccc21 | inactive |  |
| COc1ccc(S(=O)(=O)N(C)C[C@H]2Oc3ccc(NS(=O)(=O)c4c(C)noc4C)cc3C(=O)N([C@H](C)CO)C[C@@H]2C)cc1 | inconclusive [activator, full curve] |  |
| Cc1ccc(SC(CC(=O)c2ccc(C)cc2)C(=O)O)cc1 (stereo unspecified) | inconclusive [activator, single point] |  |
| O=C(CSc1nc2c([nH]c3ccccc32)c(=O)n1-c1ccc(Cl)cc1)NCC1CCCO1 (stereo unspecified) | inactive |  |
| CCn1c(CCl)nc2cc(S(=O)(=O)N3CCOCC3)ccc21 | inconclusive [activator, single point] |  |
| CCOC(=O)c1c(N)sc2c1CCCC2 | inconclusive [activator, single point] |  |
| Cc1ccc(S(=O)(=O)c2cn(Cc3ccccc3Cl)c3ccc(F)cc3c2=O)cc1 | inactive |  |

| SMILES | Potency | growth rescue (activation) |
| --- | --- | --- |
| Cc1cccc(NS(=O)(=O)c2ccc3c(c2)CCN3C(=O)C2CCC2)c1 | inconclusive [activator, partial curve, poor fit] |  |
| CCOC(=O)Cn1nc(/C=C/c2ccc(OC)cc2)ccc1=O | inconclusive [activator, partial curve] |  |
| CCc1nn2c(=O)cc(COC(=O)c3cc(Cl)c(OC)c(OC)c3)nc2s1 | inconclusive [activator, partial curve] |  |
| COCCNc1c2c(nc3c(-c4ccccc4)c(C)nn13)CCC2 | inconclusive [activator, single point] |  |
| Cc1ccc2c(c1)N(Cc1ccc3c(c1)OCO3)C(=O)C(C)O2 (stereo unspecified) | inconclusive [activator, single point] |  |
| Cn1c(SCC(=O)Nc2nc3ccccc3s2)nnc1-c1ccccc1 | inactive |  |
| O=C(Nc1cccc(F)c1)c1ccc(-c2ccccc2)s1 | inconclusive [activator, full curve] |  |
| Cc1ccc(C)c(N2CCN(Cc3csc(C)c3)CC2)c1 | inactive |  |
| CCCCNS(=O)(=O)c1ccc(OC)c(C)c1 | inconclusive [activator, partial curve, poor fit] |  |
| CC(NC(=O)c1ccccc1O)c1ccccc1 (stereo unspecified) | inconclusive [activator, single point] |  |
| COc1ccc(CNc2ncnc3cc(Cl)ccc23)cc1 | inconclusive [activator, partial curve] |  |
| COc1ccccc1-c1noc(-c2ccc(NC(C)C)c([N+](=O)[O-])c2)n1 | inactive |  |
| COc1cc2c(cc1OC)C(C)N(C(=O)c1sccc1C)CC2 (stereo unspecified) | inconclusive [activator, single point] |  |
| CN(CC(=O)Nc1ccccc1Br)C(=O)COc1cccc2c1OC(C)(C)C2 | inactive |  |
| COC(=O)CSc1nnc(-c2ccc(S(=O)(=O)N3CCC(C)CC3)cc2)o1 | inconclusive [activator, partial curve] |  |
| O=S1(=O)C=C(Sc2nnc(-c3ccccc3)o2)c2ccccc21 | active: 8.91 µM |  |
| COc1ccc(C)cc1C(=O)CCC(=O)N1CCN(c2ccccc2F)CC1 | inconclusive [activator, single point] |  |
| Cc1cc(C)cc(NC(=O)CCCc2nc(-c3ccccc3Cl)no2)c1 | inactive |  |
| CCc1ccc2c(c1)NC(=O)C2(C)Cc1ccccc1OC (stereo unspecified) | inconclusive [activator, partial curve] |  |
| O=S(=O)(c1ccc2c(c1)OCCO2)N1CCN(c2ncnc3sccc23)CC1 | inactive |  |
| CCOC(=O)C1CCN(c2ncnc3c2oc2ccc(Cl)cc23)CC1 | inconclusive [activator, single point] |  |
| CN(Cc1ccccc1)S(=O)(=O)c1ccc(OCC(=O)N2CCOCC2)cc1 | inactive |  |
| Cc1cccc(/C=N/NC(=O)c2cc(-c3cccnc3)nc3c2c(C)nn3-c2ccccc2)c1 | inconclusive [activator, partial curve] |  |
| Cc1[nH]c2ccccc2c1SCC(=O)NC1CCCCC1 | inconclusive [activator, partial curve, poor fit] |  |

| SMILES | Potency | growth rescue (activation) |
| --- | --- | --- |
| CCOC(=O)c1sc2nc(C)nc(NCc3ccccc3)c2c1C | inconclusive [activator, partial curve] |  |
| CCOC(=O)c1sc(/N=C/C2=C(O)CC(C)(C)CC2=O)c(C(=O)OCC)c1C | inconclusive [activator, partial curve] |  |
| CCN(c1cccc(C)c1)c1ncnc2c1cnn2-c1cccc(Cl)c1 | inactive |  |
| COc1ccc(-n2nc([N+](=O)[O-])c(=NCCc3cccc(C)c3)n2O)cc1 | active: 12.6 µM |  |
| COc1ccccc1N(C)S(=O)(=O)c1ccc(C(=O)NCCc2ccc(F)cc2)cc1 | inconclusive [activator, single point] |  |
| O=C(c1cc(-c2ccc(O)cc2)on1)N1CCN(c2ccccc2)CC1 | active: 11.2 µM and active: 10 µM |  |
| CCOC(=O)c1nc(N)c(C(=O)OCC)[nH]1 | inactive |  |
| COc1ccccc1C(=O)Nc1c(C)n(C)n(-c2ccccc2)c1=O | inconclusive [activator, partial curve, poor fit] |  |
| O=S1(=O)CCOC[C@H](Cc2ccccc2)N1Cc1cccc(Cl)c1 | inconclusive [activator, single point] |  |
| Cn1c(NC(=O)c2ccccc2NC(=O)C(C)(C)C)nc2ccccc21 | inconclusive [activator, single point] |  |
| CCCNC(=O)CSc1nc(Cc2ccccc2)nc2ccccc12 | inconclusive [activator, partial curve] |  |
| COc1ccc(CCC(=O)N(C)CC(=O)Nc2ccc(Cl)c(C(F)(F)F)c2)cc1 | inconclusive [activator, partial curve] |  |
| COc1ccc(C(=O)O/N=C(\N)Cc2ccc(Cl)c(Cl)c2)cc1OC |  | inconclusive: -93.1% [activator] |
| Cc1ccc2c(C)c(C(=O)N3CCN(C4CCS(=O)(=O)C4)CC3)oc2c1C (stereo unspecified) | inactive |  |
| CCOC(=O)c1c(NC(=S)NC)sc2c1CCCC2 | inconclusive [activator, partial curve] |  |
| C[C@]12CCC(=O)CC1=CCC1C3CC=C(C#N)[C@@]3(C)CC[C@@]12O (stereo partly specified) | inconclusive [activator, partial curve] |  |
| Cc1ccc(Cl)cc1-n1ncc2c(Nc3cccc(C)c3C)ncnc21 | inconclusive [activator, partial curve] |  |
| O=C(Nc1nnc(C2CC2)o1)c1ccc(S(=O)(=O)N2CCc3ccccc3C2)cc1 | active: 15.8 µM |  |
| COc1ccc(CNC(=O)c2ccc(CS(=O)Cc3ccccc3Cl)o2)cc1 (stereo unspecified) | inactive |  |
| O=S(=O)(Nc1ccc2c(c1)OCO2)c1cccc(Br)c1 | active: 12.6 µM |  |
| O=C(COC(=O)C1(c2ccccc2F)CCCC1)NCc1cccs1 | inconclusive [activator, full curve] |  |
| O=C(NCCc1ccccc1)c1cnc(Cl)c(Cl)c1 | inconclusive [activator, partial curve] |  |
| CCCNC(=O)CCSc1nc(-c2ccc3c(c2)OCO3)cc(C(F)(F)F)n1 | inconclusive [activator, partial curve] |  |
